About 2,200 (0.71%) of roughly 310,000 compounds showed an effect of 50% or more. Effects have a minus sign here. The list shows a part of the results.
Molecular target: human ether-à-go-go-related gene (hERG) potassium channel (human, UniProt Q12809)
Experiment: primary screen, population patch clamp on CHO cells stably expressing hERG

Sequence of human ether-à-go-go-related gene (hERG) potassium channel (Q12809 whole entry, looked up): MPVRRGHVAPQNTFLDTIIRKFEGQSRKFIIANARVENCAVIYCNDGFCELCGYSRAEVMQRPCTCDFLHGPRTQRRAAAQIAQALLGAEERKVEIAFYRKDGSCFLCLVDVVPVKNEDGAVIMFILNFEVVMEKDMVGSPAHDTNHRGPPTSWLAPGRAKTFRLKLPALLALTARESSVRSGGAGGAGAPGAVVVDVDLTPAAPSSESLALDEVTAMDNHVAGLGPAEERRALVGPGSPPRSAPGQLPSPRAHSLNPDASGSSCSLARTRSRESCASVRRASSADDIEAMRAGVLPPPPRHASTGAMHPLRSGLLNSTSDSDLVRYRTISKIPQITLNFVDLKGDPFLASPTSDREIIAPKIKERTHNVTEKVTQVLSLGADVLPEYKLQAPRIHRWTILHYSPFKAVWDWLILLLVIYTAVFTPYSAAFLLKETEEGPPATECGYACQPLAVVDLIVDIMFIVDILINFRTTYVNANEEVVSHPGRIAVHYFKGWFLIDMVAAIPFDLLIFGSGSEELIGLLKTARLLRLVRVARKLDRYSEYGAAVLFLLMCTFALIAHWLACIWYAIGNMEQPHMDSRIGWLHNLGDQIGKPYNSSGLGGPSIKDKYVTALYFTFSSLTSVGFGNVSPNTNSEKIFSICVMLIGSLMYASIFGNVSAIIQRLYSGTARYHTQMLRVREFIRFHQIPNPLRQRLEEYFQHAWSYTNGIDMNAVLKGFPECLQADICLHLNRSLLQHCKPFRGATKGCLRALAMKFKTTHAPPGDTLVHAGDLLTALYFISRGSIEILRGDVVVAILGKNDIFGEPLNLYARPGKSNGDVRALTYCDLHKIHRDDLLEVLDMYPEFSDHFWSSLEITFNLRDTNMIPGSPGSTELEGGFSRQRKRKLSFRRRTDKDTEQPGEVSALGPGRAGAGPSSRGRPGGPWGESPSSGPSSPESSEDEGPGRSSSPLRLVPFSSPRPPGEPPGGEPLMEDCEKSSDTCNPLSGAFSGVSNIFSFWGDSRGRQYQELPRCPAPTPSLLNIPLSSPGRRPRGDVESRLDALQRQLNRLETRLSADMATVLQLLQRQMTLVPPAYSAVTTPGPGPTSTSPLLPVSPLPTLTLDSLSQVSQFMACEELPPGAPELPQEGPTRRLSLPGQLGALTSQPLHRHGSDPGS

Structure (SMILES)	hERG current change (%, negative = inhibition) at 1uM [%]
COC(=O)C1=C(C)NC(C)=C(C(=O)OC)C1C(=O)OCCN1C(=O)c2ccccc2C1=O	5.48
CCCCN1C[C@H](Cc2ccccc2)[C@@H](CC(=O)Nc2ccccc2)C1=O	9.55
Cc1ccc(N2Cc3ccccc3C2=O)cc1	13.1
O=S(=O)(Cc1cnc(Cl)s1)c1ccccc1	13.2
CCOc1ccc(C(=O)NNC(=O)C2CC(=O)N(c3ccc(C)cc3)C2)cc1 (centres unmarked)	10.7
COc1ccc(N2Cc3cccc(C(=O)N4CCOCC4)c3C2=O)cc1	9.77
CC(C)(C)c1nc2ccccc2c2nnc(SCC(=O)Nc3nc4ccccc4s3)n12	7.47
CCOC(=O)C1C(=O)C=C(c2cccs2)CC1c1ccccc1 (centres unmarked)	10.8
O=C(COc1ccccc1)NCCSCc1ccco1	11.8
Cc1cnccc1CN(C)Cc1cn(C)nc1-c1cccc(Cl)c1	7.15
Cc1oc2cc(OCc3cnn(-c4ccccc4)c3)ccc2c(=O)c1Oc1ccccc1F	3.03
Cc1cc(C)nc(SCC(=O)N/N=C\c2sccc2C)n1	5.1
CC1=C(C(=O)N2CCOCC2)C(c2cc(C)cs2)NC(=O)N1 (centres unmarked)	7.45
COC(=O)c1cnc(Oc2ccc(NC(=O)NC(=O)c3c(OC)cccc3OC)cc2)cc1C(F)(F)F	-0.442
CCOc1ccccc1NC(=O)Nc1ccc(Br)cn1	11.4
Cc1ccc(OCC(O)CN2CCN(CC(O)COc3ccc(C)cc3)CC2)cc1 (centres unmarked)	-8.83
COCCNc1cc(C)nc2ccccc12.Cl	0.614
CCOC(=O)N1CCN(C(=O)c2ccc(Cl)c(S(=O)(=O)Nc3ccccc3)c2)CC1	10.7
COc1ccc(C(=O)N2CCC(C(=O)O)CC2)c2ccccc12	9.5
COc1ccc(CCNC(=O)CS(=O)(=O)c2cn(CC(=O)N(C(C)C)C(C)C)c3ccccc23)cc1OC	5.26
O=S(=O)(NCc1ccc2c(c1)OCO2)c1ccc(Cl)s1	2.1
Cc1ccc(NC(=O)C/C(N)=N/O)cc1C	9.79

Structure (SMILES)	hERG current change (%, negative = inhibition) at 1uM [%]
CC(=O)c1c(N2CCOCC2)nc(=S)n(-c2ccccc2)c1C	8.88
COCCNc1nc(-c2ccc(OC)cc2)c(-c2ccc(OC)cc2)s1	16
CN1C[C@H](C(=O)NC2(C)OC3(O)[C@@H]4CCCN4C(=O)[C@H](Cc4ccccc4)N3C2=O)CC2c3cccc4[nH]cc(c34)C[C@H]21.CS(=O)(=O)O (some centres unmarked)	6.02
CCOc1cc(/C=C(\C#N)C(=O)Nc2ccccc2C(=O)O)ccc1OC(=O)c1ccc(C)cc1	15.7
Cl.FC(F)(F)c1cccc(N2CCNCC2)c1	-4
O=C1Nc2ccccc2C1=Nc1ccc(S(=O)(=O)Nc2nccs2)cc1	10.5
CCCn1c(=O)c2ccccc2n2c(SCCOc3ccc(Cl)cc3)nnc12	1.37
O=C(Nc1ccc(N2CCOCC2)c(F)c1)c1cccs1	2.63
O=C(/C=C/c1ccc(Cl)cc1)NCCCN1CCOCC1	-21.1
CC(C)NC(=O)/C(=C/c1cn(-c2ccccc2)nc1-c1cccc([N+](=O)[O-])c1)NC(=O)c1ccccc1	4.69
COCc1nc(-c2cc(OC)c(OC)c(OC)c2)no1	-8.59
Cc1nc2c(-c3ccccc3)c(C)[nH]n2c(=O)c1Cl	4.53
COc1cc([N+](=O)[O-])cc(/C=N/NC(=O)CSc2ccccn2)c1O	6.72
CC1(C)Cc2c(cnn2-c2ccc(F)cc2)C(NC(=O)CN2CCCCC2=O)C1 (centres unmarked)	8.93
O=C(CSc1nnc(Cc2cccs2)n1C1CCCCC1)N1CCN(C(=O)c2ccco2)CC1	7.24
O=C(N/N=C/c1cccc2ccccc12)c1ccncc1	14.3
Cc1ccc(CNC(=O)CCCc2cn(C)c3ccccc23)cc1	15.5
CN1[C@H]2CC[C@@H]1C(C(=O)N1CCOCC1)=C(O)C2	14
CN(CC(=O)Nc1ccc(F)cc1)c1ccc(S(=O)(=O)N2CCCCC2)cc1[N+](=O)[O-]	2.32
OCCN(Cc1ccccc1)Cc1cccc(C(F)(F)F)c1	10.9
CCc1ccc(NC(=O)N(Cc2ccco2)C(C)c2cccs2)cc1 (centres unmarked)	17.2
Nc1cc(N2CCCC2)c(Cl)cc1[N+](=O)[O-]	16.9

Structure (SMILES)	hERG current change (%, negative = inhibition) at 1uM [%]
Cc1ccc(NC(=O)c2noc(C(C)C)c2[N+](=O)[O-])cc1	4.81
O=C(CCC(=O)NNC(=S)Nc1ccccc1)NCc1ccccc1	20.1
O=C(COc1ccc(S(=O)(=O)NC2CCCCC2)cc1)N1CCN(c2ccc(F)cc2)CC1	-9.18
COc1ccc(CNC(=O)C/C(C)=N/NC(=O)c2cnccn2)cc1	20.4
COc1cccc(N2CCN(Cc3ccco3)CC2)c1	12
O=C(NC12CC3CC(CC(C3)C1)C2)N1CCN(C(=O)C2CCCO2)CC1 (centres unmarked)	11.7
COc1ccc(NC(C)=O)cc1S(=O)(=O)Nc1ccccc1C(=O)N1CCCC1	4.48
COc1cc(CNCc2ccccn2)ccc1OCC(=O)NC(C)(C)C.Cl	3.61
CC(C)N(C(=O)CSc1nc2ccccc2n1Cc1ccccc1)C(C)C	-8.14
COC(=O)c1ccc2c(=O)[nH]c(CSc3nc(-c4ccc(F)cc4)cs3)nc2c1	13.2
CN1/C(=C\C(=O)c2oc3ccccc3c2N)C(C)(C)c2ccccc21	17.2
Fc1cccc(F)c1CN1CCN(c2ncccn2)CC1	16.7
O=C(COC(=O)c1cc[n+]([O-])cc1)Nc1cc([N+](=O)[O-])ccc1Cl	13.7
COCCNC(=O)/C(C#N)=C/C=C/c1ccccc1[N+](=O)[O-]	11.3
NC(=O)c1c(NC(=O)C2CC=CCC2C(=O)O)sc2c1CCCCC2 (centres unmarked)	15.4
CC(NC(=O)C(C)N1C(=O)c2ccccc2C1=O)c1ccccc1 (centres unmarked)	7.23
Cc1ccc(NC(=S)NCCc2ccccc2)nc1	7.22
COc1cc2cc(CN(CCN3CCCC3)C(=O)Nc3ccc(F)cc3)c(=O)[nH]c2cc1OC	3.06
Cc1noc(NS(=O)(=O)c2ccc(NC(=O)C34CC5CC(C3)CC(n3cnc(Br)n3)(C5)C4)cc2)c1C	9.86
O=C(NCCCn1ccnc1)C(=O)NCC1OCCCN1S(=O)(=O)c1ccc(F)cc1 (centres unmarked)	5.99
COC(=O)c1ccc(CN2CCCC(CO)(Cc3ccc(F)cc3F)C2)cc1 (centres unmarked)	-8.99
COc1ccc(NC(=O)CCC(=O)c2ccc(-c3ccccc3)cc2)cc1	8.94

Structure (SMILES)	hERG current change (%, negative = inhibition) at 1uM [%]
CCN(C(=O)c1ccco1)c1nnc(-c2ccc(OC)cc2)s1	10
Nc1c(C(=O)c2ccccc2)oc2ccccc12	13.5
Cc1ccc(/C=N/NC(=O)CNC(=O)COc2ccccc2)o1	2.85
N#C/C(=C\c1cccnc1)C(=O)Nc1ccccc1	10.8
CCCSc1nnc(-c2cccc(S(=O)(=O)N(C)C)c2)n1-c1cc(OC)ccc1OC	-1.69
O=C(NCC(c1ccco1)N1CCCC1)c1ccc(Cl)c(S(=O)(=O)N2CCc3ccccc32)c1 (centres unmarked)	14.4
Cc1nc(CNS(=O)(=O)c2ccccc2F)cs1	-0.287
COc1ccccc1N1CC(C(=O)NCCN2C(=O)S/C(=C\c3cccnc3)C2=O)CC1=O (centres unmarked)	10.7
Cc1cc(NS(=O)(=O)c2ccc(NC(=O)CCCC(=O)O)cc2)nc(C)n1	9.18
O=c1[nH]c(SCc2ccc(Cl)cc2)nc2ccsc12	-9.75
Cc1ccc(NC(=O)CN2CCN(Cc3ccccc3)CC2)cc1F	-29.3
CCC1=NN(C(=O)COc2ccccc2C)C(O)(c2ccncc2)C1 (centres unmarked)	1.74
O=C(NCN1CCN(c2ccccc2F)CC1)c1ccccc1	5.34
COc1ccc(-c2nc3c(s2)CCc2onc(-c4ccc(Br)cc4)c2-3)cc1	12
COC(=O)[C@@H](NCc1cccc(CN[C@H](C(=O)OC)C(C)C)c1)C(C)C	10.6
O=[N+]([O-])c1c(-c2cn[nH]c2)n[nH]c1-c1cn[nH]c1	14.6
COC(=O)C1=C(C(=O)OC)[C@@H]2N(C)c3ccc(OC)cc3[C@@]23C[C@@H](C(=O)OC)N(C(=O)C2CCC2)C3=N1	-6.84
Cc1ccc(C)c(OCc2nnc(NC(=O)c3ccc4c(c3)OCO4)s2)c1	6.46
CC(C)C(=O)Nc1ccc(C(=O)NNC(=O)CCc2ccccc2)cc1	10.1
CC/C(=N\NC(=O)c1ccccc1O)c1c(O)n(Cc2ccccc2)c(=O)[nH]c1=O	7.24

— paper PMC4336329 (PLoS ONE, 2015)
